The name of at least one read-out is uncertain.
What was measured:
[1] = Promoting excretion of 238Pu(IV) in mice by orally administered ligands (Table 4); format: in vivo; conditions: 30 μmol/kg by gavage at 3 min after Pu; for 238Pu in liver at 24 h / 238Pu in skeleton at 24 h / 238Pu in soft tissue at 24 h / 238Pu in whole body at 24 h: mean ± SD; for 238Pu excreta: feces and GI contents / 238Pu excreta: urine 0-24 h / 238Pu in kidneys at 24 h: pooled samples
Text: (§1) Animal studies were completed using methods detailed in Radiation Protection Dosimetry, 1994, 53, 305: P. W. Durbin et al., "In Vivo Chelation of Am(III), Pu(IV), Np(V) and U(VI) in Mice by TREN-(Me-3,2-HOPO)"; Radiation Protection Dosimetry, 1989, 17, 351: P. W. Durbin et al., "Removal of ^238 Pu(IV) from Mice by Polycatechoylate, -Hydroxamate or -Hydroxypyridinonate Ligands"; Radiation Research, 1984, 99, 85: P. W. Durbin et al., "Specific Sequestering Agents for the Actinides . . . "; Radiation Research, 1984, 99, 106: P. W. Durbin et al., "Removal of Pu and Am from Beagles and Mice . . . "; Radiation Research, 1980, 81, 170: R. D. Lloyd et al., and P. W. Durbin et al., "Specific Sequestering Agents for the Actinides . . . ". The foregoing articles are hereby incorporated by reference.
(§2) Radionuclides used in the animal studies came from a variety of sources. The ^238 Pu(IV) citrate and ^241 Am(III) citrate solutions were prepared for animal injection by 8- to 10-fold dilution with 0.14M NaC1 (pH 4) of concentrated stock solutions (0.08M sodium citrate buffer) that had been held in frozen storage at Lawrence Berkeley Laboratory (hereinafter LBL) for several years. [The ^238 Pu(IV) was originally obtained from D. R. Atherton at the University of Utah Radiobiology Laboratory, Salt Lake City. The ^241 Am(III) solution had been obtained many years earlier from the LBL Actinide Chemistry group.]
The novel chelating agents of the present invention were tested for their effectiveness in promoting excretion of ^238 Pu(IV) by oral administration to mice as follows. Mice in groups of five, each received an intravenous injection of 1850 Bq ^238 Pu(IV) in 0.2 M]L of citrate buffer. Three minutes later, 30 μmol/kg of ligand was given by gavage in 0.5 ml of saline. The mice were killed 24 hours after the ^238 Pu(IV) injection, frozen, and dissected after partial thawing. The ^238 Pu(IV) in skeleton, soft tissues, and separated excreta was determined by counting the ^234 U L x-rays. Results of removal of ^238 Pu(IV) from mice by orally administered ligands are summarized in Table 4, which also includes data for the reference ligands, and the Pu-injected controls.
^b Ligands were given (30 μmole kg^-1, by gavage) at 3 min, an
mice were killed at 24 h after iv injection of ^238 Pu(IV) citrate.

[2] = Promoting excretion of 238Pu(IV) in mice by injected ligands (Table 3); format: in vivo; conditions: 30 μmol/kg i.p. at 1 h after Pu; for 238Pu in liver at 24 h / 238Pu in skeleton at 24 h / 238Pu in soft tissue at 24 h / 238Pu in whole body at 24 h: mean ± SD; for 238Pu excreta: feces and GI contents / 238Pu excreta: urine 0-24 h / 238Pu in kidneys at 24 h: pooled samples
Text: as §1, §2
The novel chelating agents of the present invention were tested for their effectiveness in promoting excretion of ^238 Pu(IV) in mice by injected ligands as follows. Mice, in groups of five, each received an intravenous injection of 1850 Bq^238 Pu(IV) in 0.2 mL of citrate buffer. One hour later, 30 μmol/kg of ligand was injected intraperitoneally in 0.5 mL of saline. The mice were killed 24 hours after the Pu injection, frozen, and dissected after partial thawing. The ^238 Pu in skeleton, soft tissues, and separated excreta was determined by counting the ^234 U L x-rays. Results of removal of ^238 Pu(IV) from mice by injected ligands are summarized in Table 3, which also includes data for CaNa3 -DTPA and other reference ligands and the Pu-injected controls. […] While in the case of multidentate 1,2-HOPO and catechoylamide chelating agents, octadentates are always better chelating agents than the correspond hexadentates and tetradentates.
^b Ligands were injected (30 μmol kg^-1, i.p.) at 1 h, and mic
were killed at 24 h after iv injection of ^238 Pu(IV) citrate.

O=C(NCCCN(CCCCN(CCCNC(=O)c1cccc(=O)n1O)C(=O)c1cccc(=O)n1O)C(=O)c1cccc(=O)n1O)c1cccc(=O)n1O [3,4,3-LI(1,2-HOPO), reference compound]
238Pu in liver at 24 h [1]: 22 ± 7.7% of administered ^238 Pu | 238Pu in skeleton at 24 h [1]: 33 ± 5.0% of administered ^238 Pu | 238Pu in soft tissue at 24 h [1]: 3.9 ± 0.8% of administered ^238 Pu | 238Pu in whole body at 24 h [1]: 60 ± 8.2% of administered ^238 Pu | 238Pu excreta: feces and GI contents [1]: 5.0% of administered ^238 Pu | 238Pu excreta: urine 0-24 h [1]: 9.5% of administered ^238 Pu | 238Pu in kidneys at 24 h [1]: 0.2% of administered ^238 Pu

Cn1ccc(C(=O)NCCCNC(=O)c2ccn(C)c(=O)c2O)c(O)c1=O [3-LI-Me-3,2-HOPO, 1,3-bis[(3-hydroxy-1-methyl-2-oxo-1,2-dihydropyridin-4-yl)carboxamido] propane]
238Pu in liver at 24 h [2]: 9.5 ± 4.9% of injected ^238 Pu | 238Pu in skeleton at 24 h [2]: 14 ± 1.9% of injected ^238 Pu | 238Pu in soft tissue at 24 h [2]: 2.6 ± 0.4% of injected ^238 Pu | 238Pu in whole body at 24 h [2]: 27 ± 5.2% of injected ^238 Pu | 238Pu excreta: feces and GI contents [2]: 41.6% of injected ^238 Pu | 238Pu excreta: urine 0-24 h [2]: 32% of injected ^238 Pu | 238Pu in kidneys at 24 h [2]: 0.5% of injected ^238 Pu | 238Pu in liver at 24 h [1]: 33 ± 4.4% of administered ^238 Pu | 238Pu in skeleton at 24 h [1]: 27 ± 7.7% of administered ^238 Pu | 238Pu in soft tissue at 24 h [1]: 5.0 ± 1.2% of administered ^238 Pu | 238Pu in whole body at 24 h [1]: 66 ± 11% of administered ^238 Pu | 238Pu excreta: feces and GI contents [1]: 7.9% of administered ^238 Pu | 238Pu excreta: urine 0-24 h [1]: 27% of administered ^238 Pu | 238Pu in kidneys at 24 h [1]: 0.8% of administered ^238 Pu

Cn1ccc(C(=O)NCCCCNC(=O)c2ccn(C)c(=O)c2O)c(O)c1=O [4-LI-Me-3,2-HOPO, 1,4-bis[(3-hydroxy-1-methyl-2-oxo-1,2-dihydro-pyridin-4-yl)carboxamido]butane]
238Pu in liver at 24 h [2]: 3.7 ± 1.5% of injected ^238 Pu | 238Pu in skeleton at 24 h [2]: 11 ± 1.7% of injected ^238 Pu | 238Pu in soft tissue at 24 h [2]: 1.9 ± 0.5% of injected ^238 Pu | 238Pu in whole body at 24 h [2]: 17 ± 2.7% of injected ^238 Pu | 238Pu excreta: feces and GI contents [2]: 63% of injected ^238 Pu | 238Pu excreta: urine 0-24 h [2]: 19.4% of injected ^238 Pu | 238Pu in kidneys at 24 h [2]: 0.4% of injected ^238 Pu | 238Pu in liver at 24 h [1]: 34 ± 7.7% of administered ^238 Pu | 238Pu in skeleton at 24 h [1]: 15 ± 6.1% of administered ^238 Pu | 238Pu in soft tissue at 24 h [1]: 3.6 ± 1.5% of administered ^238 Pu | 238Pu in whole body at 24 h [1]: 54 ± 13% of administered ^238 Pu | 238Pu excreta: feces and GI contents [1]: 13.6% of administered ^238 Pu | 238Pu excreta: urine 0-24 h [1]: 32.5% of administered ^238 Pu | 238Pu in kidneys at 24 h [1]: 0.5% of administered ^238 Pu

Cn1ccc(C(=O)NCCCCCNC(=O)c2ccn(C)c(=O)c2O)c(O)c1=O [5-LI-Me-3,2-HOPO, 1,5-bis[(3-hydroxy-1-methyl-2-oxo-1,2-dihydro-pyridin-4-yl)carboxamido]pentane]
238Pu in liver at 24 h [2]: 3.1 ± 0.8% of injected ^238 Pu | 238Pu in skeleton at 24 h [2]: 10 ± 1.2% of injected ^238 Pu | 238Pu in soft tissue at 24 h [2]: 1.9 ± 0.5% of injected ^238 Pu | 238Pu in whole body at 24 h [2]: 16 ± 1.9% of injected ^238 Pu | 238Pu excreta: feces and GI contents [2]: 67.6% of injected ^238 Pu | 238Pu excreta: urine 0-24 h [2]: 17.5% of injected ^238 Pu | 238Pu in kidneys at 24 h [2]: 0.3% of injected ^238 Pu | 238Pu in liver at 24 h [1]: 24 ± 5.3% of administered ^238 Pu | 238Pu in skeleton at 24 h [1]: 23 ± 11% of administered ^238 Pu | 238Pu in soft tissue at 24 h [1]: 4.4 ± 2.0% of administered ^238 Pu | 238Pu in whole body at 24 h [1]: 53 ± 17% of administered ^238 Pu | 238Pu excreta: feces and GI contents [1]: 27.1% of administered ^238 Pu | 238Pu excreta: urine 0-24 h [1]: 20% of administered ^238 Pu | 238Pu in kidneys at 24 h [1]: 0.8% of administered ^238 Pu

Cn1ccc(C(=O)NCCOCCNC(=O)c2ccn(C)c(=O)c2O)c(O)c1=O [5-LI-O-Me-3,2-HOPO, 1,5-bis[(3-hydroxy-1-methyl-2-oxo-1,2-dihydro-pyridin-4-yl)carboxamido]-3-oxypentane]
238Pu in liver at 24 h [2]: 2.1 ± 0.3% of injected ^238 Pu | 238Pu in skeleton at 24 h [2]: 11 ± 1.6% of injected ^238 Pu | 238Pu in soft tissue at 24 h [2]: 1.6 ± 0.2% of injected ^238 Pu | 238Pu in whole body at 24 h [2]: 15 ± 2.1% of injected ^238 Pu | 238Pu excreta: feces and GI contents [2]: 61.7% of injected ^238 Pu | 238Pu excreta: urine 0-24 h [2]: 23.5% of injected ^238 Pu | 238Pu in kidneys at 24 h [2]: 0.2% of injected ^238 Pu | 238Pu in liver at 24 h [1]: 16 ± 4.4% of administered ^238 Pu | 238Pu in skeleton at 24 h [1]: 23 ± 5.9% of administered ^238 Pu | 238Pu in soft tissue at 24 h [1]: 4.0 ± 0.8% of administered ^238 Pu | 238Pu in whole body at 24 h [1]: 43 ± 10% of administered ^238 Pu | 238Pu excreta: feces and GI contents [1]: 44.7% of administered ^238 Pu | 238Pu excreta: urine 0-24 h [1]: 12.5% of administered ^238 Pu | 238Pu in kidneys at 24 h [1]: 0.8% of administered ^238 Pu

Cn1ccc(C(=O)NCCCCCCNC(=O)c2ccn(C)c(=O)c2O)c(O)c1=O [6-LI-Me-3,2-HOPO, 1,6-bis[(3-hydroxy-1-methyl-2-oxo-1,2-dihydropyridin-4-yl)carboxamido]hexane]
238Pu in liver at 24 h [2]: 6.5 ± 3.7% of injected ^238 Pu | 238Pu in skeleton at 24 h [2]: 12 ± 1.8% of injected ^238 Pu | 238Pu in soft tissue at 24 h [2]: 3.7 ± 1.8% of injected ^238 Pu | 238Pu in whole body at 24 h [2]: 23 ± 4.9% of injected ^238 Pu | 238Pu excreta: feces and GI contents [2]: 62.9% of injected ^238 Pu | 238Pu excreta: urine 0-24 h [2]: 14.4% of injected ^238 Pu | 238Pu in kidneys at 24 h [2]: 0.5% of injected ^238 Pu | 238Pu in liver at 24 h [1]: 44 ± 5.0% of administered ^238 Pu | 238Pu in skeleton at 24 h [1]: 25 ± 3.1% of administered ^238 Pu | 238Pu in soft tissue at 24 h [1]: 6.2 ± 1.1% of administered ^238 Pu | 238Pu in whole body at 24 h [1]: 76 ± 5.8% of administered ^238 Pu | 238Pu excreta: feces and GI contents [1]: 9.8% of administered ^238 Pu | 238Pu excreta: urine 0-24 h [1]: 14.2% of administered ^238 Pu | 238Pu in kidneys at 24 h [1]: 1.3% of administered ^238 Pu

CC(=O)N(O)CCCCCNC(=O)CCC(=O)N(O)CCCCCNC(=O)CCC(=O)N(O)CCCCCNC(=O)c1cccc(=O)n1O [DFO-(1,2-HOPO), reference compound]
238Pu in liver at 24 h [1]: 11 ± 4.9% of administered ^238 Pu | 238Pu in skeleton at 24 h [1]: 12 ± 2.4% of administered ^238 Pu | 238Pu in soft tissue at 24 h [1]: 1.3 ± 0.7% of administered ^238 Pu | 238Pu in whole body at 24 h [1]: 24 ± 7.7% of administered ^238 Pu | 238Pu excreta: feces and GI contents [1]: 51.4% of administered ^238 Pu | 238Pu excreta: urine 0-24 h [1]: 25.7% of administered ^238 Pu | 238Pu in kidneys at 24 h [1]: 0.1% of administered ^238 Pu

CC(=O)N(O)CCCCCNC(=O)CCC(=O)N(O)CCCCCNC(=O)CCC(=O)N(O)CCCCCNC(=O)c1ccn(C)c(=O)c1O [DFO-Me-3,2-HOPO]
238Pu in liver at 24 h [1]: 22 ± 7.7% of administered ^238 Pu | 238Pu in skeleton at 24 h [1]: 20 ± 7.6% of administered ^238 Pu | 238Pu in soft tissue at 24 h [1]: 15 ± 4.0% of administered ^238 Pu | 238Pu in whole body at 24 h [1]: 60 ± 11% of administered ^238 Pu | 238Pu excreta: feces and GI contents [1]: 17.3% of administered ^238 Pu | 238Pu excreta: urine 0-24 h [1]: 22.4% of administered ^238 Pu | 238Pu in kidneys at 24 h [1]: 2.4% of administered ^238 Pu
